# Results published in the supplement of paper PMC8728848.
# The other results are listed elsewhere or left out.
# Assays:
# Test in all cases: glycan array binding signal (z-score within array); higher = stronger binding
# Conditions in all cases: glycan notation: IUPAC condensed, linker removed
# [1] = molecular target: GlcNAc(b1-4)GlcNAc(b1-4)GlcNAc(b1-4)GlcNAc(b1-4)GlcNAc
# Outline: (§1)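 From the Consortium for Functional Glycomics database, 3228 arrays were curated, keeping only those whose protein sequence was available. Binding is given as a within-array Z-score averaged across arrays sharing a protein sequence and across linkers. Negative Z-scores can be read as non-binding.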
# [2] = molecular target: GlcNAc(b1-4)GlcNAc(b1-4)GlcNAc(b1-4)GlcNAc(b1-4)GlcNAc(b1-4)GlcNAc
# Outline: as §1
# [3] = molecular target: GlcNAc(b1-4)[GlcNAc(b1-6)]GalNAc
# Outline: as §1
# [4] = molecular target: GlcNAc(b1-6)Gal(b1-4)GlcNAc
# Outline: as §1
# [5] = molecular target: GlcNAc(b1-6)GalNAc
# Outline: as §1
# [6] = molecular target: Kdn(a2-3)Gal(b1-3)GlcNAc
# Outline: as §1
# [7] = molecular target: Kdn(a2-3)Gal(b1-4)GlcNAc
# Outline: as §1
# [8] = molecular target: Man(a1-2)Man(a1-2)Man(a1-3)Man
# Outline: as §1
# [9] = molecular target: Man(a1-2)Man(a1-2)Man(a1-6)[Man(a1-3)]Man
# Outline: as §1
# [10] = molecular target: Man(a1-2)Man(a1-3)Man
# Outline: as §1
# [11] = molecular target: Man(a1-2)Man(a1-3)[Man(a1-2)Man(a1-6)]Man
# Outline: as §1
# [12] = molecular target: Man(a1-2)Man(a1-3)[Man(a1-2)Man(a1-6)]Man(a1-6)[Man(a1-2)Man(a1-2)Man(a1-3)]Man(b1-4)GlcNAc(b1-4)GlcNAc
# Outline: as §1
# [13] = molecular target: Man(a1-2)Man(a1-3)[Man(a1-6)]Man(a1-6)[Man(a1-2)Man(a1-3)]Man(b1-4)GlcNAc(b1-4)GlcNAc
# Outline: as §1
# [14] = molecular target: Man(a1-2)Man(a1-6)[Man(a1-3)]Man(a1-6)[Man(a1-2)Man(a1-2)Man(a1-3)]Man(b1-4)GlcNAc(b1-4)GlcNAc
# Outline: as §1
# [15] = molecular target: Man(a1-3)[Man(a1-6)]Man
# Outline: as §1
# [16] = molecular target: Man(a1-3)[Man(a1-6)]Man(a1-6)[Man(a1-2)Man(a1-3)]Man(b1-4)GlcNAc(b1-4)GlcNAc
# Outline: as §1
# [17] = molecular target: Man(a1-3)[Man(a1-6)]Man(a1-6)[Man(a1-3)]Man(b1-4)GlcNAc(b1-4)GlcNAc
# Outline: as §1
# [18] = molecular target: Man(a1-3)[Man(a1-6)]Man(b1-4)GlcNAc(b1-4)GlcNAc
# Outline: as §1
# [19] = molecular target: Man(b1-4)GlcNAc
# Outline: as §1
# [20] = molecular target: Neu5Ac(a2-3)Gal
# Outline: as §1
# [21] = molecular target: Neu5Ac(a2-3)Gal(b1-3)GalNAc
# Outline: as §1
# [22] = molecular target: Neu5Ac(a2-3)Gal(b1-3)GalNAc(b1-3)Gal(a1-4)Gal(b1-4)Glc
# Outline: as §1
# [23] = molecular target: Neu5Ac(a2-3)Gal(b1-3)GalNAc(b1-3)Gal(b1-4)GlcNAc
# Outline: as §1
# [24] = molecular target: Neu5Ac(a2-3)Gal(b1-3)GalNAc(b1-4)[Neu5Ac(a2-3)]Gal(b1-4)Glc
# Outline: as §1
# [25] = molecular target: Neu5Ac(a2-3)Gal(b1-3)GalNAc6S
# Outline: as §1
# [26] = molecular target: Neu5Ac(a2-3)Gal(b1-3)GlcNAc
# Outline: as §1
# [27] = molecular target: Neu5Ac(a2-3)Gal(b1-3)GlcNAc6S
# Outline: as §1
# [28] = molecular target: Neu5Ac(a2-3)Gal(b1-3)[Fuc(a1-4)]GlcNAc
# Outline: as §1
# [29] = molecular target: Neu5Ac(a2-3)Gal(b1-3)[Fuc(a1-4)]GlcNAc(b1-3)Gal(b1-4)[Fuc(a1-3)]GlcNAc
# Outline: as §1
# [30] = molecular target: Neu5Ac(a2-3)Gal(b1-3)[Neu5Ac(a2-3)Gal(b1-4)]GlcNAc
# Outline: as §1
# [31] = molecular target: Neu5Ac(a2-3)Gal(b1-3)[Neu5Ac(a2-6)]GalNAc
# Outline: as §1
# [32] = molecular target: Neu5Ac(a2-3)Gal(b1-4)Glc
# Outline: as §1
# [33] = molecular target: Neu5Ac(a2-3)Gal(b1-4)GlcNAc
# Outline: as §1
# [34] = molecular target: Neu5Ac(a2-3)Gal(b1-4)GlcNAc(b1-2)Man(a1-3)[Neu5Ac(a2-3)Gal(b1-4)GlcNAc(b1-2)Man(a1-6)]Man(b1-4)GlcNAc(b1-4)GlcNAc
# Outline: as §1
# [35] = molecular target: Neu5Ac(a2-3)Gal(b1-4)GlcNAc(b1-3)Gal(b1-4)GlcNAc
# Outline: as §1
# [36] = molecular target: Neu5Ac(a2-3)Gal(b1-4)GlcNAc(b1-3)Gal(b1-4)GlcNAc(b1-3)Gal(b1-4)GlcNAc
# Outline: as §1
# [37] = molecular target: Neu5Ac(a2-3)Gal(b1-4)GlcNAc(b1-3)Gal(b1-4)[Fuc(a1-3)]GlcNAc
# Outline: as §1
binder,measurement,setting,value
"Siglec-H (Mus musculus), Q4QQK7 (protein) MLLSRLLPLLWVLKWASGNCFILPREVIGTYPSLTLELQSVTVQEGLCVLVPCHLIEYPMNRWSDAAFGYWFHEGENTHPDSLVATNKPYQLVQKEMQSRFHFSGDCSLDIRDAQKGDNGSYFFRLEKGGKTWNFCEERISVHVTDLTHSPNISIPQTLELGRPTNVMCSVPWACERGTPPIFSWMSAALISLGPTTTLSSVLTLTPRLQDHGTNLTCQVTFPGAGVTVQKTIQLNVTYNSQNSTAHVSGRVGPGKPRPLADVVQVAMGEAAIKFLLLGICFFFLSKRSHTKRVERPATHMDQAHAVMD",glycan array binding signal (z-score),[1],-0.024
same,glycan array binding signal (z-score),[2],-0.229
same,glycan array binding signal (z-score),[3],-0.313
same,glycan array binding signal (z-score),[4],-0.379
same,glycan array binding signal (z-score),[5],-0.31
same,glycan array binding signal (z-score),[6],-0.29
same,glycan array binding signal (z-score),[7],-0.227
same,glycan array binding signal (z-score),[8],-0.235
same,glycan array binding signal (z-score),[9],1.27
same,glycan array binding signal (z-score),[10],-0.251
same,glycan array binding signal (z-score),[11],-0.324
same,glycan array binding signal (z-score),[12],-0.252
same,glycan array binding signal (z-score),[13],-0.228
same,glycan array binding signal (z-score),[14],1.92
same,glycan array binding signal (z-score),[15],-0.263
same,glycan array binding signal (z-score),[16],-0.144
same,glycan array binding signal (z-score),[17],-0.393
same,glycan array binding signal (z-score),[18],-0.35
same,glycan array binding signal (z-score),[19],-0.116
same,glycan array binding signal (z-score),[20],-0.288
same,glycan array binding signal (z-score),[21],-0.361
same,glycan array binding signal (z-score),[22],0.075
same,glycan array binding signal (z-score),[23],-0.371
same,glycan array binding signal (z-score),[24],-0.255
same,glycan array binding signal (z-score),[25],-0.312
same,glycan array binding signal (z-score),[26],-0.1
same,glycan array binding signal (z-score),[27],1.46
same,glycan array binding signal (z-score),[28],-0.383
same,glycan array binding signal (z-score),[29],-0.382
same,glycan array binding signal (z-score),[30],-0.317
same,glycan array binding signal (z-score),[31],2.4
same,glycan array binding signal (z-score),[32],-0.279
same,glycan array binding signal (z-score),[33],-0.323
same,glycan array binding signal (z-score),[34],-0.271
same,glycan array binding signal (z-score),[35],-0.033
same,glycan array binding signal (z-score),[36],-0.359
same,glycan array binding signal (z-score),[37],0.637
